# In all, about 310,000 compounds went through this assay and about 14,000 (4.5%) showed an effect of 50% or more. The effect is printed as a negative number. The list shows a part of the results.
# Target: human ether-à-go-go-related gene (hERG) potassium channel (human, UniProt Q12809)
# Test: primary screen, population patch clamp on CHO cells stably expressing hERG
# 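Note: peak tail current of the secondary pulse compared with the same well before compound.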
# Sequence of human ether-à-go-go-related gene (hERG) potassium channel (Q12809 whole entry, looked up): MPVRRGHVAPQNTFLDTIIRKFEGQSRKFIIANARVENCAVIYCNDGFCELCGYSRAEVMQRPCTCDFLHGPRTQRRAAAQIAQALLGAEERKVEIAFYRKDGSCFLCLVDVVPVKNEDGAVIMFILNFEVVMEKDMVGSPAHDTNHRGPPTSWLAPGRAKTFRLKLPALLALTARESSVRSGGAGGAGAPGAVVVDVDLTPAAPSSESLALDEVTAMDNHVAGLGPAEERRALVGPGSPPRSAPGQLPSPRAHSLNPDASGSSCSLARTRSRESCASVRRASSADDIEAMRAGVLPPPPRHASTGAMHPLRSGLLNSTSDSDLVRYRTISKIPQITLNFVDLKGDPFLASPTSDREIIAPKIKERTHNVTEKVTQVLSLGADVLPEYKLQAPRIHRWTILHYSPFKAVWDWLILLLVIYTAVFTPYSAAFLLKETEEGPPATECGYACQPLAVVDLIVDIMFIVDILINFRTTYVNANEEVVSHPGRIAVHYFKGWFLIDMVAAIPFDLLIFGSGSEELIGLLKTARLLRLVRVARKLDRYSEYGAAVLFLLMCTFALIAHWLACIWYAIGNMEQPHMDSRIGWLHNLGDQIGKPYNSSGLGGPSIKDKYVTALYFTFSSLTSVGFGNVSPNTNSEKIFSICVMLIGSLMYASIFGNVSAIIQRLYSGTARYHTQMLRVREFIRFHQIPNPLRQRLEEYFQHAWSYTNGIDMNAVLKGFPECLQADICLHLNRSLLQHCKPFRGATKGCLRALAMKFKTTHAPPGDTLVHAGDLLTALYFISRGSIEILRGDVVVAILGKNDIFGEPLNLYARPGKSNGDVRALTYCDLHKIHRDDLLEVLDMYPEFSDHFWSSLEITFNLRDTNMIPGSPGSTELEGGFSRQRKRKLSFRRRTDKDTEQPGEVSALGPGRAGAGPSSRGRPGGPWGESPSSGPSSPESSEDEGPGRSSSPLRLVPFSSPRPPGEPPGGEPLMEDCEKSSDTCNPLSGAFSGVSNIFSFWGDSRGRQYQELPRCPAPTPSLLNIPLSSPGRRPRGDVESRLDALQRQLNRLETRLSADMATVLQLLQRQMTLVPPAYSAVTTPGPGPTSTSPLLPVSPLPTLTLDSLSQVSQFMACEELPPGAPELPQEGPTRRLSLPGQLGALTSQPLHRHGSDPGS
row,SMILES,"hERG current change (%, negative = inhibition) at 10uM"
1,CC(=O)c1cc(-c2ccccc2)[nH]c1N1CCOCC1,9.55%
2,O=C(Nc1ccc(NC(=O)c2ccccc2F)cc1)c1cccs1,34.1%
3,CC(=O)Nc1cccc(/C(C)=N/NC(=O)c2ccc3c(c2)OCO3)c1,7.58%
4,Cn1c(NC(=O)c2ccccc2C(F)(F)F)cc(=O)n(C)c1=O,-33%
5,CC(=O)Nc1nc(-c2ccccc2)nc(-c2ccccc2OC(C)=O)n1,-30.1%
6,CC1(C)CC(=O)C(CC(=O)NC2CCCc3ccccc32)C(=O)C1 (stereo not shown),15.1%
7,Clc1ccc(SCc2nc3ccccc3[nH]2)cc1,-11.2%
8,O=C(COc1ccccc1C(=O)O)Nc1ccc(SC(F)F)cc1,19.8%
9,CCCCc1ccc(/C=C2\C(=O)c3ccccc3C(O)=C2C(=O)OCC)cc1,15.8%
10,Cc1ccc(CNC(=O)c2cc3c(=O)n(C)c4ccccc4c3n2C)cc1,11.6%
11,CSc1ccc(/C=C2/C(=N)N3N=C(CC(=O)N4CCCC4)SC3=NC2=O)cc1,10.8%
12,O=C(CN(CC1CCCO1)C(=O)CNS(=O)(=O)c1ccc(Cl)cc1)NCCc1ccccc1 (stereo not shown),-20.8%
13,CCc1cc[n+](-c2nc3ccccc3nc2C(=C=[N-])C#N)cc1,2.09%
14,CCn1c(-c2ccc([N+](=O)[O-])cc2)n[nH]c1=S,9.07%
15,Cc1cc(NC(=O)CSc2nc(-c3ccccc3)cs2)no1,20.5%
16,CN(Cc1ccccc1)C(=O)c1ccc2c(c1)OCO2,-2.29%
17,Cn1cnnc1SCC(=O)N1N=C(c2ccc(Cl)cc2)CC1c1ccco1 (stereo not shown),-32.5%
18,COc1ccccc1CN(C)C(=O)CN1CCN(S(=O)(=O)c2ccc3c(c2)OCCCO3)CC1,-9.15%
19,COC(=O)CN(C(=S)Nc1ccc(F)cc1)C1CC(=O)N(c2ccc(OC)cc2)C1=O (stereo not shown),2%
20,COc1cc(/C(C)=N/N2CCN(c3ccccc3OC)CC2)ccc1O,-9.07%
21,CC(C)c1ccc(NC2CCCN(C(=O)c3ccc(Cn4cnnn4)cc3)C2)cc1 (stereo not shown),-4.24%
22,COC(=O)CSc1nnc(-c2ccc(NS(=O)(=O)c3ccccc3)cc2)o1,9.9%

row,SMILES,"hERG current change (%, negative = inhibition) at 10uM"
1,Cc1ccc(CSCC(=O)N2CCN(c3ccccc3)CC2)cc1,-9.06%
2,Nc1cc(=O)n(Cc2ccccc2)c(=O)n1-c1ccc(Cl)cc1,-1.08%
3,CC(OC(=O)/C=C/c1cccc(Cl)c1)C(=O)NC1CCCCC1C (stereo not shown),25.9%
4,COc1cc(C(=O)NNC(=O)CNC(=O)c2ccc(Br)o2)cc(OC)c1OC,18.7%
5,COc1ccc(N2CCN(C(=O)c3ccc(Cn4c(=S)[nH]c5ccc(N6CCOCC6)cc5c4=O)cc3)CC2)cc1,6.17%
6,Cn1cc(S(=O)(=O)N2CCCC2)cc1C(=O)NCc1ccccc1,-2.54%
7,Cc1cc(=O)oc2c1c(C)nn2-c1nn[nH]n1,-7.13%
8,CC(C)(CO)NS(=O)(=O)c1ccc2c(c1)C(=O)c1cc(S(=O)(=O)NC(C)(C)CO)ccc1-2,16.2%
9,CN1CCN2c3ccccc3CC3(C(=O)N(C)C(=O)N(C)C3=O)C2C1 (stereo not shown),15.7%
10,Cc1ccc(NC2CCCN(C(=O)c3ccc4nccnc4c3)C2)cc1C (stereo not shown),-14.9%
11,COC(CNC(=O)c1ccc2nc3ccccc3c(=O)n2c1)OC,10.8%
12,O=C(Cc1ccccc1)OCn1nnc2ccccc2c1=O,6.75%
13,CC1CN(S(=O)(=O)c2cccc(-c3csc(-c4ccccc4)n3)c2)CC(C)O1 (stereo not shown),0.164%
14,Cc1oc2cc3oc(=O)c(CC(=O)N[C@@H](C)C(=O)NC(Cc4ccc(Cl)cc4)C(=O)O)c(C)c3cc2c1C (stereo partly shown),7.36%
15,COc1ccc(CC(=O)Oc2ccc(C)cc2Br)cc1S(=O)(=O)N1CCOCC1,5.5%
16,COc1cccc(-n2c(SCC(N)=O)nnc2-c2c[nH]c3ccccc23)c1,-14.6%
17,Cc1ccc(S(=O)(=O)N2CCN(C(=O)CC(C)n3nc(C)c(Cl)c3C)CC2)cc1 (stereo not shown),-17.6%
18,Cc1cc(C(=O)NNC(=S)Nc2ccccc2C)cs1,18.8%
19,COc1ccc(C)cc1NC(=O)CN1CCN(CC(=O)Nc2ccccc2F)CC1,-48.7%
20,O=C(c1nn(Cc2ccccc2)c(=O)c2ccccc12)N1CCN(C/C=C/c2ccccc2)CC1,-57.7%
21,COc1ccccc1NS(=O)(=O)c1ccc(-c2cc(C)no2)s1,-69.5%
